Laboratory results published in PMC10668032.
The other results are listed elsewhere or left out. At the low end of the ranking the order means little.

These sequences were tested against SIX1 homeodomain (reference allele) (UniProt Q15475) (assay: universal protein binding microarray). Conditions: Universal all-10-mer PBM (8x60K, AMADID 030236), 300 nM GST-tagged protein, Alexa Fluor 488 anti-GST; buffer, salt, pH and temperature not stated; high values mean tight binding; most listed sequences are background and not binding sites; double strand, one strand shown.

| Sequence | binding signal |
| --- | --- |
| CATTCTAC | -0.138 E-score |
| GACAACAC | 0.0383 E-score |
| ATTCGGTC | -0.184 E-score |
| AATCACCC | 0.0903 E-score |
| CGTGACTA | -0.0645 E-score |
| AACCGATT | -0.0518 E-score |
| CAGGGCGA | 0.216 E-score |
| CTGGGCCA | -0.187 E-score |
| CCATGAGC | -0.00082 E-score |
| CACTTTTC | -0.147 E-score |
| GTGGGCTA | -0.143 E-score |
| GCACCCGA | 0.146 E-score |
| GTGAACTA | -0.0175 E-score |
| GCTTAAGC | -0.206 E-score |
| GGCGGCTA | 0.101 E-score |
| ACTGGTAT | 0.386 E-score |
| CCGGTTTA | -0.0166 E-score |
| ATATGAAC | 0.0317 E-score |
| AGTGTAAC | -0.0601 E-score |
| CTCATTGA | -0.124 E-score |
| ACACTTGC | -0.172 E-score |
| CAGAGTAG | -0.0349 E-score |
| GTTACCGA | -0.212 E-score |
| GAACGCCC | -0.261 E-score |
| AAGACATG | -0.116 E-score |

| Sequence | binding signal |
| --- | --- |
| AGAATGAT | 0.216 E-score |
| CTATTGTA | 0.124 E-score |
| ATAAGCTC | -0.00516 E-score |
| ATAGTACA | 0.19 E-score |
| AGACCTAT | 0.17 E-score |
| TACGCTAA | 0.0362 E-score |
| GGCTTATA | 0.121 E-score |
| CCTACGAA | -0.055 E-score |
| ACGACCTA | -0.119 E-score |
| CGGCGTAC | -0.153 E-score |
| GCAAATGA | -0.0339 E-score |
| CGTGACCC | 0.0509 E-score |
| AAGCTGCA | -0.122 E-score |
| AATACCGG | 0.273 E-score |
| ATAGTCAC | 0.0709 E-score |
| TCCCACAA | 0.0221 E-score |
| CGGGACTC | -0.261 E-score |
| ACGCAGGA | -0.0076 E-score |
| CCTGACAC | 0.352 E-score |
| GACGGCGC | -0.283 E-score |
| AATTTCCC | -0.253 E-score |
| CATGAAAG | 0.157 E-score |
| ATTCGGCG | -0.06 E-score |
| CGTATACA | 0.279 E-score |
| TACAATCA | -0.0724 E-score |

| Sequence | binding signal |
| --- | --- |
| CGATAGAG | -0.0205 E-score |
| CGAAGAGC | -0.158 E-score |
| CGAACAAG | -0.193 E-score |
| AATTTCGG | -0.156 E-score |
| ACGTCATA | -0.0417 E-score |
| GAAGTATC | 0.407 E-score |
| CGTGCAGC | -0.209 E-score |
| GCGGTCAA | -0.0653 E-score |
| CACCTATG | 0.123 E-score |
| AATTCACC | -0.183 E-score |
| AGTAGCTG | -0.0543 E-score |
| GAATGCAC | -0.0186 E-score |
| AGAGCGAT | 0.159 E-score |
| CGGCCACA | -0.233 E-score |
| GAAGCCGA | 0.0635 E-score |
| AGCAAGGA | 0.0356 E-score |
| GTGTAGTA | 0.185 E-score |
| AAGGTATT | 0.248 E-score |
| TATCATAA | 0.381 E-score |
| AAAGCATC | -0.066 E-score |
| AAACGCCA | -0.19 E-score |
| AATCCCAT | 0.19 E-score |
| CAGTGGCG | -0.033 E-score |
| CGGTAAGA | -0.0374 E-score |
| CTTTGCAA | -0.113 E-score |

| Sequence | binding signal |
| --- | --- |
| ATAACGGC | 0.0628 E-score |
| CACCGAGC | 0.115 E-score |
| AGATAGCA | 0.119 E-score |
| GCGAACCC | 0.135 E-score |
| ATGGAGGC | -0.0848 E-score |
| ATCTCGGC | 0.164 E-score |
| TCGGGAAA | 0.0547 E-score |
| CGGCAATA | -0.0449 E-score |
| AAATTATA | 0.109 E-score |
| CATAAGGA | -0.0528 E-score |
| GGATCCCA | 0.37 E-score |
| TGTGCGAA | -0.224 E-score |
| ATATCAGC | 0.404 E-score |
| CGCTAAGA | -0.0957 E-score |
| AAAGTAAC | -0.294 E-score |
| ATATCATG | 0.458 E-score |
| AAATACAT | 0.0567 E-score |
| CACGTGCC | -0.0148 E-score |
| AGCCCGGA | 0.0121 E-score |
| AAGGATTA | 0.159 E-score |
| ATATCATC | 0.46 E-score |
| AGGCATAC | -0.0178 E-score |
| ACGCTGAG | -0.114 E-score |
| TACACCAA | 0.31 E-score |
| CCGAGAGC | 0.0387 E-score |

| Sequence | binding signal |
| --- | --- |
| GGGGGACA | -0.00818 E-score |
| CTGCCGTA | -0.136 E-score |
| AACAGGCA | -0.224 E-score |
| GTGGTATA | 0.3 E-score |
| TAATGCTA | -0.118 E-score |
| GAGTCTGC | -0.239 E-score |
| CAGTCGTC | -0.222 E-score |
| TTCGAAAA | -0.173 E-score |
| AACTTGGG | -0.243 E-score |
| CTGTCTGC | -0.0986 E-score |
| AGAATTCT | 0.00881 E-score |
| CGTATTCC | 0.15 E-score |
| CTGAGATA | 0.248 E-score |
| AGCTAGGA | 0.0271 E-score |
| GAGGACGA | -0.0345 E-score |
| CATAGTGC | 0.0188 E-score |
| CCCATAGC | -0.142 E-score |
| GTACGAGA | -0.00962 E-score |
| CCCGTCAG | -0.191 E-score |
| ACAGTTAC | -0.243 E-score |
| ATGTTCGC | -0.207 E-score |
| CGATGCAG | 0.21 E-score |
| CCGTCAAA | -0.286 E-score |
| CAGCCGAG | -0.122 E-score |
| AACCCTAA | -0.0264 E-score |

| Sequence | binding signal |
| --- | --- |
| CTCTCATA | 0.0633 E-score |
| CCGGCCGG | -0.0496 E-score |
| CTACGGGA | 0.103 E-score |
| ATTCATGC | 0.0344 E-score |
| ACGTCGCT | -0.247 E-score |
| GGCGGCCC | -0.221 E-score |
| CCGCGTGC | -0.154 E-score |
| CGCGCCTC | -0.0228 E-score |
| TACACCTA | 0.304 E-score |
| ATATAAAT | 0.21 E-score |
| ATTAAATA | 0.24 E-score |
| CGTACTGA | 0.113 E-score |
| AGATAGGC | 0.0836 E-score |
| CCCAGTCG | -0.108 E-score |
| CGGTATCC | 0.451 E-score |
| GGAGGATA | 0.387 E-score |
| AGGCGTAT | 0.318 E-score |
| GCATTTCC | -0.255 E-score |
| CTACCAGC | -0.178 E-score |
| GGTCTCCA | -0.0342 E-score |
| AGAAATTA | -0.276 E-score |
| CGCACTGA | 0.0595 E-score |
| GATTGTCC | -0.115 E-score |
| AGAACGCC | -0.229 E-score |
| CATACAAC | 0.0308 E-score |

| Sequence | binding signal |
| --- | --- |
| ATACAGCA | 0.221 E-score |
| GAGGCCAA | -0.129 E-score |
| AATAGCGA | 0.0409 E-score |
| GAGCGCGC | -0.167 E-score |
| ACGCATTA | -0.105 E-score |
| CCACTTAG | -0.0735 E-score |
| GGTCGACC | -0.0987 E-score |
| CTGGTAAC | -0.0986 E-score |
| CCATTATA | 0.177 E-score |
| AGTGTCTA | 0.0274 E-score |
| AGATTAGC | -0.0739 E-score |
| GCATCGCC | -0.0214 E-score |
| AGTCCGTA | -0.165 E-score |
| AGATAAAA | 0.0034 E-score |
| CGCAGTCC | -0.0475 E-score |
| GCGACGAC | -0.273 E-score |
| CTCTTGCC | -0.113 E-score |
| ATACCGCC | 0.418 E-score |
| GACCCCAC | 0.039 E-score |
| GTGTCGCA | 0.173 E-score |
| CTAATGTA | 0.106 E-score |
| ATCTATGG | 0.065 E-score |
